# Assay results published in the supplement of paper PMC12889115.
# The other results are listed elsewhere or left out. Many values rest on one well or one pass, so single values are uncertain.
# System: Salmonella enterica serovar Typhimurium SL1344
# Test: bacterial growth OD600 after 18 h in MHB with 0.5 µg/mL polymyxin B; higher = more bacterial growth (less inhibition)
# Settings: 25 µM; polymyxin B 0.5 µg/mL; system: broth
# Experimental: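 Secondary screen of the 553 primary hits at 25 µM. (i) S. Typhimurium SL1344 grown in Mueller-Hinton broth with 0.5 µg/mL polymyxin B, OD600 read after 18 h. (ii) SAFIRE assay: RAW 264.7 macrophages infected with S. Typhimurium sifB::gfp (MOI 30); compound added 2 h post-infection; cells fixed at 18 h; GFP-positive pixel fraction per macrophage imaged by confocal microscopy and expressed as % of DMSO control.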
# 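Further: polymyxin B level opens the outer membrane while sparing the inner membrane, with novobiocin wells as reference growth inhibitor.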
row,Structure (SMILES),bacterial growth OD600
1,O=C(CCC1(Cc2ccc(F)cc2)CCC(=O)N1)NC(c1ccccc1)c1ccc(Cl)cc1 (centres undefined),0
2,CC(O)(COc1ccccc1)c1ccc2c(c1)CN(Cc1ccc(F)cc1)CCO2 (centres undefined),-0.01
3,COCCn1cnc2cc(NC(=O)C3CCCCC3)cc(C(=O)N3CCC(c4ccccc4)CC3)c21,0.114
4,Cc1c(CN2CCOc3ccc(C4=CCCCC4)cc3C2)c(=O)n(-c2ccccc2)n1C,0.008
5,Cc1ccc2c(c1)CN(C(=O)Cn1cc3ccccc3n1)CC(c1ccsc1)O2 (centres undefined),0.048
6,Cc1ccc(Cl)cc1N1CCN(C(=O)c2cn(CC3CCCO3)nn2)CC1 (centres undefined),0.029
7,COc1ccc2cc(C(C)NC3CCN(c4ccc(C(=O)NCc5cccnc5)cc4)CC3)ccc2c1 (centres undefined),0.006
8,CC#CCN1C(=O)NC(CCCc2ccccc2)(C2CCN(C(=O)/C=C/c3ccccn3)CC2)C1=O (centres undefined),0
9,COc1ccc(OC)c(-c2cc(Cl)c3c(c2)CC(CNC(=O)Cc2cn4ccsc4n2)O3)c1 (centres undefined),0.002
10,Cc1cc(C)n(CCC(=O)N(Cc2ccncc2)Cc2cccc(OCCc3ccc(F)cc3)c2)n1,0.001
11,COc1cc(CC2(CCC(=O)N3CCC(Oc4cccc(Cl)c4)CC3)CCC(=O)N2)ccc1F (centres undefined),-0.042
12,O=C(Cc1ccc2c(c1)OCO2)N(Cc1ccncc1)Cc1cccc(OCCc2ccc(F)cc2)c1,0.003
13,COc1ccc(C(=O)N2CCCC(C(=O)c3ccc(Cl)cc3C)C2)cc1 (centres undefined),-0.029
14,CC(C)CC(=O)C1CCCN(C(=O)CC2(c3ccc(-c4ccccc4)cc3)CC(=O)N(C)C2=O)C1 (centres undefined),-0.03
